Where “and” joins values, the source holds several entries; their conditions need not be identical. Identical values can stand only once. Among all 420,000 compounds or so, about 64,000 (15%) were called active. The shares of active, inactive and inconclusive entries below differ from those in the screen. The call rests on the fitted dose curve; in most records, active means well fitted inhibition curve with a large enough effect; inconclusive means small, poorly fitted or top-dose-only effect; inactive means flat fitted curve, though single readings scatter. A potency beside an inconclusive call is a rough fit, not a confirmed value.
Test: qHTS for Inhibitors of human tyrosyl-DNA phosphodiesterase 1 (TDP1): qHTS in cells in absence of CPT; further: nearly all actives have a fitted effect of over 55% in size
Settings: DT40 Tdp1-/- hTDP1 cells, no CPT, ATP luminescence, 48 h; activity change, negative = growth inhibition: at 46.2 µM (top of the series) unless noted
Summary of the method: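 Stably hTDP1-transfected Tdp1-null chicken DT40 cells were treated with library compounds minus camptothecin and grown for at least 48 hr at 37 °C, after which cellular ATP was quantified by luminescence.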
On the % scale 0 is the no-effect control and ±100 the full control effect; potency means the concentration at half of the fitted maximal effect; tags describe the fitted curve by direction and shape.

Row | SMILES | Potency | activity change, negative = growth inhibition
1 | Cc1ccc(S(=O)(=O)Nc2cc(=O)[nH]c(SCc3ccc(Cl)cc3)n2)cc1 | inconclusive: 18.4 µM [inhibitor, single point] | –
2 | CCOc1ccccc1CN1CCN(Cc2c[nH]c3ccccc23)CC1CCO (configuration not stated) | active: 16.4 µM | –
3 | O=C(c1ccccc1)C1C(c2ccccc2)C1[N+](=O)[O-] (configuration not stated) | – | inactive: -17.2%
4 | COc1ccccc1C(=O)COC(=O)/C(=C/c1ccccc1)NC(C)=O | – | inactive: 0.0527%
5 | CCc1cccc(NC(=O)c2ccc(CN3C(=O)C(C)=C(c4ccc(OC)cc4)S3(=O)=O)cc2)c1 | inconclusive: 29.1 µM [inhibitor, single point] | –
6 | COc1ccccc1CNS(=O)(=O)c1cc2c3c(c1)CCN3C(=O)CC2 | inconclusive: 16.4 µM [inhibitor, single point] and inconclusive: 23.1 µM [inhibitor, single point] | –
7 | CCc1ccc(C(O)(CNCc2ccccc2)c2ccccc2)cc1 (configuration not stated) | active: 20.6 µM | –
8 | O=C(COC(=O)c1ccc(F)cc1F)Nc1cccc(S(=O)(=O)N2CCOCC2)c1 | – | inactive: -5.66%
9 | COc1ccc(-c2nc(-c3ccccc3)c(-c3ccc(O)cc3)[nH]2)cc1 | active: 8.2 µM | –
10 | CCOc1ccccc1NC(=O)NCCn1c(=O)oc2ccc(C)cc21 | inconclusive: 16.4 µM [inhibitor, single point] | –
11 | CC1CCc2[nH]c3ccc(C(=O)N(C)CC(=O)Nc4ccccc4C(F)(F)F)cc3c2C1 (configuration not stated) | inconclusive: 20.6 µM [inhibitor, single point] | –
12 | CCOC(Cn1c(-c2ccc(OC)cc2)nc2ccccc21)OCC | active: 16.4 µM | –
13 | CC(=O)c1cccc(-c2ccc3c(=O)[nH]c(Nc4ccccc4)cc3c2)c1 | inconclusive: 25.9 µM [inhibitor, single point] | –
14 | CCc1ccc(-c2nn(CC(=O)NC3CCCC3)c3c2cnc2ccc(F)cc23)cc1 | – | inactive: -14.5%
15 | CCn1ccnc1CN1CCCC(CO)(Cc2cccc(OC)c2)C1 (configuration not stated) | inconclusive: 20.6 µM [inhibitor, partial curve] | –
16 | CCC(c1nnnn1C(C)(C)CC)N(CCCN1CCOCC1)Cc1cc2cccc(C)c2[nH]c1=O (configuration not stated) | inconclusive: 17.8 µM [inhibitor, single point] | –
17 | COc1ccc(NC(=S)N2CCN(c3ccccc3)CC2)c(OC)c1 | inconclusive: 23.1 µM [inhibitor, partial curve, poor fit] | –
18 | Cc1ccc(N(CC(=O)NCC2CCCO2)C(=O)CCC(=O)Nc2cc(C)on2)cc1 (configuration not stated) | – | inactive: -15.5%
19 | COc1ccccc1C(=O)NCCn1cc(SCc2ccccc2Cl)c2ccccc21 | inconclusive: 18.4 µM [inhibitor, single point] | –
20 | CCOC(=O)C1(Cc2cccc(OC)c2)CCN(Cc2cccnc2)CC1 | active: 29.1 µM | –
21 | COc1cccc(COc2ccccc2C2Nc3ccc(Br)cc3C(=O)N2NC(=O)c2ccncc2)c1 (configuration not stated) | inconclusive: 29.1 µM [inhibitor, single point] | –
22 | CCn1c(NC(=O)c2nn(C)cc2Br)nc2ccccc21 | inconclusive: 29.1 µM [inhibitor, partial curve] | –
23 | COC(=O)CNC(c1ccccc1)c1cc(Cl)ccc1NC(=O)c1cccc(Cl)c1 (configuration not stated) | inconclusive: 29.1 µM [inhibitor, single point] | –

Row | SMILES | Potency | activity change, negative = growth inhibition
24 | C=CCn1c2ccccc2c(=O)c2cc(C#Cc3cc(OC)cc(OC)c3)ccc21 | inconclusive: 29.1 µM [inhibitor, partial curve, poor fit] | –
25 | Cc1ccc(C(=O)ON=C2CCN(S(=O)(=O)c3ccccc3)CC2)cc1 | inconclusive: 29.1 µM [inhibitor, single point] | –
26 | CCOC(=O)C1CCN(C(=O)CSc2nc(N)cc(=O)[nH]2)CC1 | inconclusive: 0.517 µM [inhibitor, full curve, poor fit] | –
27 | C=CCn1c(CCCNC(=O)C(C)(C)C)nc2ccccc21 | – | inconclusive: -32.2% [inhibitor]
28 | COc1ccc(C(C)C)cc1-c1cncc(NC(C)=O)n1 | inconclusive: 16.4 µM [inhibitor, single point] | –
29 | CC(C)CC(=O)N1CCN(c2ccc([N+](=O)[O-])c(NCc3ccccc3)c2)CC1 | inconclusive: 29.1 µM [inhibitor, single point] | –
30 | CCOc1ccc(/C=N/NC(=O)c2ccccc2O)cc1CN1CC2CC(C1)c1cccc(=O)n1C2 (configuration not stated) | inconclusive: 16.4 µM [inhibitor, single point] | –
31 | O=C(CCS(=O)(=O)Cc1ccccc1)Nc1nc2c(s1)CCCC2 | active: 25.9 µM | –
32 | CC(=O)Nc1ccc(NC(=O)C(C)OC(=O)C2(c3ccc(F)cc3)CCCC2)cc1 (configuration not stated) | inconclusive: 25.9 µM [inhibitor, single point] | –
33 | CCCCN1C(=O)C(CC(=O)NCCN2CCOCC2)CC(C(=O)N(CC)CC)=C1C (configuration not stated) | – | inactive: -13.9%
34 | CCOc1cc(/C=N/NC(=O)c2ccc(O)cc2)ccc1Oc1nc(Cl)ncc1F | inconclusive: 14.6 µM [inhibitor, partial curve] | –
35 | CC(=O)Nc1ccc(S(=O)(=O)N2CC3(C)CC2CC(C)(C)C3)cc1 (configuration not stated) | inconclusive: 14.6 µM [inhibitor, single point] | –
36 | O=C(CSC1=NNC(c2ccccn2)S1)Nc1ccccc1 (configuration not stated) | active: 1.84 µM | –
37 | COCCN1CCN(C(=O)c2cnn(-c3ncc4c(n3)-c3ccc(OC)cc3CC4)c2C2CC2)CC1 | – | inactive: -16.6%
38 | c1ccc(CNc2ccc3c(c2)ncn3C2CCCCC2)nc1 | inconclusive: 29.1 µM [inhibitor, single point] | –
39 | CC1CN(S(=O)(=O)c2cccc(-c3cn4ccccc4n3)c2)CC(C)O1 (configuration not stated) | inconclusive: 11.6 µM [inhibitor, partial curve, poor fit] | –
40 | Cc1cccc(NC(=O)c2ccc(N3C(=O)C4C5C=CC(C6CC56)C4C3=O)cc2)c1 (configuration not stated) | inconclusive: 8.2 µM [inhibitor, partial curve] | –
41 | CCCCn1c(N)c(N(CC(C)C)C(=O)CCCc2nc3ccccc3s2)c(=O)[nH]c1=O | – | inactive: 0.281%
42 | Oc1ccc(Br)cc1-c1n[nH]c(=S)n1Cc1ccccc1 | – | inactive: -29.2%
43 | O=C(/C=C/c1ccc(F)cc1)Nc1nc2n(n1)C(c1ccc(Cl)cc1)C=C(c1ccccc1)N2 (configuration not stated) | active: 14.6 µM | –
44 | COc1ccc(Cn2c(C(=O)O)c(CNC3CCCCCC3)c3ccc(OC)cc32)cc1 | inconclusive: 29.1 µM [inhibitor, single point] | –
45 | CN1C(=O)C(C)(C)c2cc(S(=O)(=O)N3CCCC(C(=O)Nc4ccc(Cl)cc4)C3)ccc21 (configuration not stated) | active: 18.4 µM | –
46 | Cn1cc(/C=C/c2nc3ccccc3c(=O)n2-c2cccc([N+](=O)[O-])c2)c2ccccc21 | inconclusive: 14.6 µM [inhibitor, partial curve] | –

Row | SMILES | Potency | activity change, negative = growth inhibition
47 | Cc1ccc(NC(=O)CN(C)C(=O)CSc2nc3ccccc3c(=O)n2CCO)cc1 | inconclusive: 29.1 µM [inhibitor, single point] | –
48 | O=C(O)c1ccc2c(=O)n3c(nc2c1)/C(=C/c1ccc(Cl)cc1Cl)CC3 | inconclusive: 29.1 µM [inhibitor, single point] | –
49 | OC[C@@H]1CN(Cc2ccco2)C[C@H](n2cnc3c(N4CCOCC4)ncnc32)O1 | – | inactive: 12.6%
50 | CCCCC(=O)Nc1ccc(C(=O)NNC(=S)NC(=O)c2cccs2)cc1 | inconclusive: 23.1 µM [inhibitor, single point] | –
51 | COC(=O)c1ccc(CSC2=NC[C@@H]3[C@@H]4C(=O)N(Cc5ccccc5)C(=O)[C@@H]4[C@](C)(C(=O)OC)N23)cc1 | active: 16.4 µM | –
52 | COc1ccccc1C(=O)NCCC(=O)Nc1ccc(OC(F)(F)F)cc1 | inconclusive: 29.1 µM [inhibitor, single point] | –
53 | CC(C)(C)c1csc(NC(=O)C2COc3ccccc3O2)n1 (configuration not stated) | inconclusive: 23.1 µM [inhibitor, single point] | –
54 | COc1ccc(-c2nc3cc(C)c(Br)c(C)n3c2CC2CCCCC2)cc1OC | inconclusive: 29.1 µM [inhibitor, single point] | –
55 | Cc1ccc(NC(=O)CN(C)C(=O)COc2ccccc2-c2ccccc2)cc1 | active: 14.6 µM | –
56 | C[C@H](CO)N1C[C@H](C)[C@@H](CN(C)S(=O)(=O)c2cccs2)Oc2c(NS(=O)(=O)c3ccccc3)cccc2C1=O | – | inactive: -10.5%
57 | NC(=NC(=O)c1ccc(OCC(F)(F)F)nc1)c1ccccc1 | – | inconclusive: -32.9% [inhibitor]
58 | Cc1ccc2sc(N3CCN(C(=O)CCS(=O)(=O)c4ccc(F)cc4)CC3)nc2c1C | active: 2.59 µM | –
59 | COc1ccc(CCNC(=S)Nc2ccc(C)cc2C)cc1 | inconclusive: 16.4 µM [inhibitor, single point] | –
60 | COc1ccc(OC)c(CNC(=O)CCn2c(=O)c3cccn3c3ccc(F)cc32)c1 | inactive and inconclusive: 8.2 µM [inhibitor, partial curve] | –
61 | COc1ccc2c(c1)CCC2=O | – | inactive: 2.59%
62 | CCCCN1C(=O)C(=O)N(CC(=O)Nc2cc(OCC)c(N3CCOCC3)cc2OCC)C1=O | – | inactive: 12.5%
63 | COc1ccc(C(=O)Nc2ccc3oc(-c4cccc(Cl)c4)cc(=O)c3c2O)cc1 | inconclusive: 6.51 µM [inhibitor, partial curve] | –
64 | O=[N+]([O-])c1cc(CN2CCCC2)ccc1Sc1ccc(Cl)cc1 | active: 8.2 µM | –
65 | CCn1c(=O)c(C(=O)NNS(=O)(=O)c2ccc(C)cc2)c(O)c2ccccc21 | inconclusive: 29.1 µM [inhibitor, single point] | –
66 | COc1ccccc1N1CCN(CC(=O)NCCc2ccc(S(N)(=O)=O)cc2)CC1 | – | inactive: -1.08%
67 | Cc1ccc(-c2noc(CSc3nnc(CCc4ccccc4)n3-c3ccccc3)n2)cc1 | active: 16.4 µM | –
